Among the data in publication PMC4242493 are binding signal (normalized occupancy) values, retold here.

The other results are listed elsewhere or left out. The list includes weakly bound sequences.

The target in the assay is MaxL homodimer (UniProt P61244). In words: universal protein-binding microarray (PBM). The conditions noted are these: PBS-based mixture, 10 nM His-tagged protein dimer, 2% milk, 200 ng/uL BSA, 50 ng/uL salmon testes DNA, 0.02% TX-100; detection with Alexa 488 anti-His …; high values mean tight binding; most listed sequences are background and not binding sites; double strand, one strand shown.
UniProt P61244, sequence (P61244 whole entry): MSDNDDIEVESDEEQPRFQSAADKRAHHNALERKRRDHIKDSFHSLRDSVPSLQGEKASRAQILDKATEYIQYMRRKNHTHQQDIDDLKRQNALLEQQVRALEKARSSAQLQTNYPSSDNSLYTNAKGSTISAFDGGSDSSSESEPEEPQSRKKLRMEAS
In the case of AAGGGGGT, the binding signal (normalized occupancy) worked out at 0.0806.
Take AGCAGTCC: the binding signal (normalized occupancy) was 0.0748.
Consider ATGCTCCG, for which the binding signal (normalized occupancy) came to 0.074.
In the case of TATACAGA, the binding signal (normalized occupancy) amounted to 0.076.
TCCACTCA: the binding signal (normalized occupancy) amounted to 0.0775.
CCGGTAAC: the binding signal (normalized occupancy) stood at 0.0722.
For GCATGGTA, the binding signal (normalized occupancy) was determined as 0.106.
As for ACGAGCTG, the binding signal (normalized occupancy) was found to be 0.0751.
The result for AGTGTGAG reads 0.0829; that for ATGCACAG, 0.0865.
Consider AAATAGCG, for which the binding signal (normalized occupancy) was 0.0807.
ATCGCGTA: the binding signal (normalized occupancy) amounted to 0.0764.
Consider AACCTTGT, for which the binding signal (normalized occupancy) amounted to 0.0729.
Turning to CTATTCCC, the binding signal (normalized occupancy) turned out to be 0.0759.
As for GTTCCTGA, the binding signal (normalized occupancy) turned out to be 0.071.
Turning to CCGGATCA, the binding signal (normalized occupancy) turned out to be 0.0742.
The result for GTGGATTA reads 0.0835.
The same measure for TCCCCGAA: 0.0707; for GGGCAGAC: 0.0732.
With ACCGAGGG, the binding signal (normalized occupancy) stood at 0.0715.
As for AGCGACCC, the binding signal (normalized occupancy) came to 0.0713.
Consider CACTCCGA, for which the binding signal (normalized occupancy) was found to be 0.0727.
Consider CATTGTCG, for which the binding signal (normalized occupancy) is 0.0803.
Take AGGCACCC: the binding signal (normalized occupancy) is 0.0745.
Turning to GAGCTGCC, the binding signal (normalized occupancy) turned out to be 0.0712.
Regarding CCCCGCTC, the binding signal (normalized occupancy) turned out to be 0.0723.
In the case of TCTACGAA, the binding signal (normalized occupancy) was 0.0762.
Regarding GATCCCAA, the binding signal (normalized occupancy) worked out at 0.0778.
On to CCAATCGA, for which the binding signal (normalized occupancy) was found to be 0.0761.
With ACACTCCG, the binding signal (normalized occupancy) is 0.0756.
Take ACATCGGC: the binding signal (normalized occupancy) came out at 0.068.
The result for ACACATGC reads 0.137; that for CATGGCCG, 0.085; that for CCGGTCAG, 0.0671.
Consider GATTTAGC, for which the binding signal (normalized occupancy) turned out to be 0.0713.
On to AATGTGTC, for which the binding signal (normalized occupancy) is 0.095.
In the case of CATTTATA, the binding signal (normalized occupancy) stood at 0.0837.
The same measure for ATATAGTC: 0.084; for AATTAAGC: 0.0756; for CATTTACC: 0.0792.
The same measure for GTTGGCAA: 0.075.
In the case of AGAGGTAA, the binding signal (normalized occupancy) came out at 0.0724.
The result for CCCTTTCA reads 0.0772; that for CCACCGTC, 0.0749; that for CATCGTCC, 0.0759.
For TGAGGAAA, the binding signal (normalized occupancy) was found to be 0.0759.
As to AGGGAATG, the binding signal (normalized occupancy) turned out to be 0.0778.
The result for ATGGAGCG reads 0.0803; that for ACGTTAAA, 0.0795.
In the case of GAATAAGA, the binding signal (normalized occupancy) came to 0.0794.
As for ATAAATGC, the binding signal (normalized occupancy) amounted to 0.0834.
ACATATAA: the binding signal (normalized occupancy) was 0.0827.
For GATCTTAC, the binding signal (normalized occupancy) worked out at 0.078.
Regarding CACGAGCA, the binding signal (normalized occupancy) came out at 0.0904.
CCCTCCCC: the binding signal (normalized occupancy) is 0.0813.
Regarding CCCAGGCC, the binding signal (normalized occupancy) worked out at 0.0716.
The same measure for ACAAAGTA: 0.074; for GACTCTCA: 0.0765.
In the case of TCTATAAA, the binding signal (normalized occupancy) amounted to 0.0807.
With AGACCTAG, the binding signal (normalized occupancy) was 0.0713.
The result for GCAATGCA reads 0.0792; that for CTCGCGCA, 0.0761.
The same measure for ATGTGATG: 0.0968.
As to CCGTACCG, the binding signal (normalized occupancy) was determined as 0.0712.
GCTGGTGA: the binding signal (normalized occupancy) was 0.0746.
The same measure for ACGACTCG: 0.0696; for AAGCCTCT: 0.0759.
The result for AAACGGCT reads 0.0646; that for AGCAGTAT, 0.0755; that for AAGGAGAC, 0.0783.
Take GCCGGTAA: the binding signal (normalized occupancy) was 0.072.
Consider CTCGAACC, for which the binding signal (normalized occupancy) was found to be 0.0717.
With CGCTTTCA, the binding signal (normalized occupancy) came out at 0.076.
As to GCGGCTCC, the binding signal (normalized occupancy) was found to be 0.0693.
For the sequence CAGCATAC, the binding signal (normalized occupancy) is 0.0829.
For GCCTAGGC, the binding signal (normalized occupancy) amounted to 0.0685.
For GCGTCACC, the binding signal (normalized occupancy) was found to be 0.0737.
In the case of AGAGGAGA, the binding signal (normalized occupancy) was 0.0731.
As for ACACGTAA, the binding signal (normalized occupancy) was 0.082.
Regarding CTATAATC, the binding signal (normalized occupancy) turned out to be 0.0798.
GTTGGCGA: the binding signal (normalized occupancy) was found to be 0.0684.
As for ATCCACGG, the binding signal (normalized occupancy) is 0.0796.
The result for CAGATAGG reads 0.0755; that for AGTATCTG, 0.0718; that for GTACGAAC, 0.0712.
With CTAATCAA, the binding signal (normalized occupancy) is 0.0703.
On to CTGAGTTA, for which the binding signal (normalized occupancy) came out at 0.075.
The same measure for ATCCAGTA: 0.0781; for CGATACAA: 0.0766.
The same measure for ACTCAAAC: 0.0711; for GGTGGTAA: 0.0793.
CATCGTAA: the binding signal (normalized occupancy) is 0.072.
As for ATGATCAT, the binding signal (normalized occupancy) is 0.0825.
On to CATTCCGG, for which the binding signal (normalized occupancy) is 0.0746.
For GTTTTCGA, the binding signal (normalized occupancy) is 0.0726.
As to CCCTCGCC, the binding signal (normalized occupancy) worked out at 0.0752.
Regarding ATTTGGGG, the binding signal (normalized occupancy) came to 0.0826.
In the case of AGTCCAGC, the binding signal (normalized occupancy) was 0.0715.
For the sequence GTTAACCA, the binding signal (normalized occupancy) came out at 0.0793.
CATAGCAA: the binding signal (normalized occupancy) turned out to be 0.0774.
The result for CTACCGCA reads 0.0796; that for AGCTTTAG, 0.0725; that for GCCCGGCA, 0.0681.
The result for CGAGACCA reads 0.0884.
In the case of ATCACCGA, the binding signal (normalized occupancy) came to 0.0729.
Consider GAAAGTCA, for which the binding signal (normalized occupancy) came out at 0.0794.
In the case of GGGCCAAA, the binding signal (normalized occupancy) is 0.0712.
For the sequence GTCTTAGA, the binding signal (normalized occupancy) stood at 0.0791.
The same measure for GAAATAGA: 0.0803; for GCATCCTA: 0.0746.
